From patent US8470556B2, “Nucleic acids that encode antigen binding proteins that bind PAR-2” (Amgen Inc., priority 2007, dated 2013)

What was measured:
[1] = biological target: T1, N-terminal PAR-2/Fc (full length and truncated) (Homo sapiens, UniProt P55085); test: Western blot, binding to uncleaved versus clipped N-terminal PAR-2/Fc; details: downstream binder binds both full length and truncated PAR-2-Fc
T1 construct: made in house; host or cells: CHO cells (10% FCS for uncleaved; serum-free for clipped)
T1 sequence (P55085 with tags, fused parts or gaps limits assumed): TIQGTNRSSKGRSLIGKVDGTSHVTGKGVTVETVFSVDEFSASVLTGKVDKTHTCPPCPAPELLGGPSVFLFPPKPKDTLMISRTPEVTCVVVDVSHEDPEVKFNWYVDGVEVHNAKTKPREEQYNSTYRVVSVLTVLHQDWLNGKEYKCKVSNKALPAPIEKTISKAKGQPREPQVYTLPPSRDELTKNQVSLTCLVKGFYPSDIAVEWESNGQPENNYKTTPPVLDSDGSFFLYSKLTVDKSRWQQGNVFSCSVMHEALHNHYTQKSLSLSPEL
Text: N-terminal PAR-2/Fc polypeptide (SEQ ID NO:6) is expressed in suitable mammalian cells such as CHO cells. Expression supernatant from CHO expression cells cultured in serum-free media contain a CHO cell trypsin-like serine protease that cleaves PAR-2/Fc at the activation Arg-Ser bond, generating the “clipped” version of the PAR-2/Fc polypeptide. CHO expression cells cultured in 10% fetal calf serum (which contains normal levels of plasma proteinase inhibitors at concentrations far in excess of the concentration of the CHO cell trypsin-like serine protease) express uncleaved N-terminal PAR-2/Fc in culture supernatants. […] The resultant purified Fc-constructs are analyzed by amino terminal sequence analysis (Edman degradation), size exclusion chromatrography, absorbance spectral scan, and mass spectroscopy, as needed.
To analyze binding to uncleaved versus cleaved PAR-2, various amounts of purified uncleaved and clipped N-terminal PAR2-Fc are subjected to SDS-PAGE using 8-16% polyacrylamide gradient gels (Novex gels, Invitrogen Life Technologies) in a Tris-Glycine buffer system. […] Antibodies to be analyzed are diluted in 1:1 OBB:TBS at a desired final concentration for 1 hr at room temperature. […] Membranes are washed as described above, and if desired, analyzed using a LI-COR Odyssey Infrared Imaging System (LI-COR Biosciences). […]

[2] = biological target: T2, PAR-2 (Homo sapiens, UniProt P55085); test: FLIPR assay for Ca2+ mobilization; type: cell-based
T2 sequence (P55085 26-397): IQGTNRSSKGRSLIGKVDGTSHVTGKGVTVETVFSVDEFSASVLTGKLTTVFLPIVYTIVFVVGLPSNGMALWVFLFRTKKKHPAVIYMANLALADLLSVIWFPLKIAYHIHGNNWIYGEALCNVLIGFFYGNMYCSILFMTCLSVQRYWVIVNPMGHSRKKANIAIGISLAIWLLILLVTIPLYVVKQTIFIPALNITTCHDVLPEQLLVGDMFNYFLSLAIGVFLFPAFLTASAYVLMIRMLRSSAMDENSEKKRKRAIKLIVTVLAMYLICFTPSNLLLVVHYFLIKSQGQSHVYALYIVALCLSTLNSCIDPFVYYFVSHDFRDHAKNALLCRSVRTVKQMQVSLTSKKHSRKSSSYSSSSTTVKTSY
Text: Hybridoma clones thus generated are screened for reactivity with PAR-2. Initial screening of hybridoma supernatants may utilize a peptide ELISA, a whole cell ELISA and/or a cell-based assay suitable for high-throughput screening (fluorometric microvolume assay technology or FMAT, substantially as described by Fiscella, et al., Nature Biotechnology 21:302-307; 2003). Hybridomas that are positive in this screening method may be further cultured to provide larger amounts of antibody, which can then be purified as described below and screened by additional cell-based assay(s) (for example, a flash plate assay using cells co-expressing apoaequorin, a Ca2+-sensitive photoprotein, substantially as described by Le Poul et al., J. Biomol. Screen. 7(1):57-65; 2002, and PAR-2), or a fluorometric imaging plate reader (FLIPR) assay, which is used to determine changes in intracellular Ca2+ levels, substantially as described in S. Pitchford, Genetic Engineering News vol. 18, Number 15 (1998) and/or Sullivan et al., Methods in Molecular Biology vol. […]
Several PAR-2 antibodies were tested in different assay formats; Table 2 summarizes the results. IC50 values were determined in a FLIPR assay for Ca2+ mobilization described previously; binding to the upstream region of the cleavage site versus the downstream region of the cleavage site was determined using the Western blot assay described previously.

B1: 12D5: anti-PAR-2 monoclonal antibody; heavy SEQ ID NO: 31, light SEQ ID NO: 33 (antibody, listed as Homo sapiens, V domains shown)
VH: QVQLQQSGPGLVKPSQTLSLTCAISGDSVSSNRAAWNWIRQSPSRGLEWLGRTYYRSKWYNDFAVSVRSRITITPDTSKNQFSLQLNSVTPEDTAVYYCARDRNSGYYYYGLDVWGQGTTVTVSS
VL: KIVMTQSPATLSVSPGERATLSCRASQSVSNNLAWYQQKPGQAPRLLIYGASTRATGIPARFSGSGSGTEFTLTITSLQSEDFAVYYCQQYNNWPLTFGGGTKVEIK
Binding to Cleavage Site Down stream [1]: xx | IC50 [2]: > 1 µM

B2: 13F2: anti-PAR-2 monoclonal antibody; heavy SEQ ID NO: 35, light SEQ ID NO: 37 (antibody, listed as Homo sapiens, V domains shown)
VH: QVQLQQSGPGLVKPSQTLSLTCAISGDSVSSNRAAWNWIRQSPSRGLEWLGRTYYRSKWYNDHAVSVKSRITITPDTSKNQFSLQLNSVTPEDKAVYYCARDRNSGYYYYGLDVWGQGTTVTVSS
VL: EIVMTQSPATLSVSPGERATLSCRASQSVSNNLAWYQQKPGQAPRLLIYGASTRATGIPARFSGSGSGTEFTLTITSLQSEDFAVYYCQQYNNWPLTFGGGTKVEIK
Binding to Cleavage Site Down stream [1]: xx | IC50 [2]: > 1 µM
